The values below come from the supplement of paper PMC12230231.

± gives the standard deviation of the averaged measurements. Restriction of a single-cycle SIVsab GFP reporter by TRIM5α v1-loop variants in CRFK cells. Human variants: read share among cells still uninfected after two challenges over input, higher = gained restriction. Rhesus variants: share among infected cells over input, higher = lost restriction. Reporter dose not given per row. No active / inactive call per row; the paper calls a change when both replicates lie above its controls (mean + 2 SD of stop or wild-type variants, or the top frameshift score). Residues outside the varied loop are taken from Swiss-Prot. The paper reads the human single-substitution scores as noise; they and the rhesus combinations repeat poorly (rank correlation 0.3 to 0.4), indel scores repeat only for the top variants, rhesus substitutions well (0.9).

For the data set, the system named is SIVsab (simian immunodeficiency virus of sabaeus monkeys), single-cycle GFP reporter, in CRFK cells. The data set is described as follows: enrichment among infected cells over input (fold); higher = weaker restriction. The note with it: library: human / rhesus combinations. As to the method:
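Pools of CRFK cells expressing variants of the TRIM5α v1 loop were challenged with the single-cycle reporter, sorted by GFP and sequenced; mean of two replicates.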
“MASGILLNVKEEVTCPICLELLTEPLSLHCGHSFCQACITANHKKSMLYKEGERSCPVCRISYQPENIQPNRHVANIVEKLREVKLSPEEGQKVDHCARHGEKLLLFCQEDSKVICWLCERSQEHRGHHTFLMEEVAQEYHVKLQTALEMLRQKQQEAEKLEADIREEKASWKIQIDYDKTNVSADFEQLREILDWEESNELQNLEKEEEDILKSLTKSETEMVQQTQYMRELISELEHRLQGSMMDLLQGVDGIIKRIENMTLKKPKTFHKNQRRVFRAPDLKGMLDMFRELTDARRYWVDVTLAPNNISHAVIAEDKRQVSSRNPQIMYGAPGTLYTFPSFTNFNYCTGVLGSQSITSGKHYWEVDVSKKSAWILGVCAGFQSDAMYNIEQNENYQPKYGYWVIGLQEGVKYSVFQDGSSHTPFAPFIVPLSVIICPDRVGVFVDYEACTVSFFNITNHGFLIYKFSQCSFSKPVFPYLNPRKCTVPMTLCSPSS [rhesus TRIM5α, 332-344 = GAPGTLYTFPSFT]”: the enrichment is 0.891 ± 0.16.

For “MASGILLNVKEEVTCPICLELLTEPLSLHCGHSFCQACITANHKKSMLYKEGERSCPVCRISYQPENIQPNRHVANIVEKLREVKLSPEEGQKVDHCARHGEKLLLFCQEDSKVICWLCERSQEHRGHHTFLMEEVAQEYHVKLQTALEMLRQKQQEAEKLEADIREEKASWKIQIDYDKTNVSADFEQLREILDWEESNELQNLEKEEEDILKSLTKSETEMVQQTQYMRELISELEHRLQGSMMDLLQGVDGIIKRIENMTLKKPKTFHKNQRRVFRAPDLKGMLDMFRELTDARRYWVDVTLAPNNISHAVIAEDKRQVSSRNPQIMYGAPGTLYTFPSFVNFNYCTGVLGSQSITSGKHYWEVDVSKKSAWILGVCAGFQSDAMYNIEQNENYQPKYGYWVIGLQEGVKYSVFQDGSSHTPFAPFIVPLSVIICPDRVGVFVDYEACTVSFFNITNHGFLIYKFSQCSFSKPVFPYLNPRKCTVPMTLCSPSS [rhesus TRIM5α, 332-344 = GAPGTLYTFPSFV]”, the enrichment amounted to 1.2 ± 1.1.

Regarding “MASGILLNVKEEVTCPICLELLTEPLSLHCGHSFCQACITANHKKSMLYKEGERSCPVCRISYQPENIQPNRHVANIVEKLREVKLSPEEGQKVDHCARHGEKLLLFCQEDSKVICWLCERSQEHRGHHTFLMEEVAQEYHVKLQTALEMLRQKQQEAEKLEADIREEKASWKIQIDYDKTNVSADFEQLREILDWEESNELQNLEKEEEDILKSLTKSETEMVQQTQYMRELISELEHRLQGSMMDLLQGVDGIIKRIENMTLKKPKTFHKNQRRVFRAPDLKGMLDMFRELTDARRYWVDVTLAPNNISHAVIAEDKRQVSSRNPQIMYGAPGTLYTFPSLVNFNYCTGVLGSQSITSGKHYWEVDVSKKSAWILGVCAGFQSDAMYNIEQNENYQPKYGYWVIGLQEGVKYSVFQDGSSHTPFAPFIVPLSVIICPDRVGVFVDYEACTVSFFNITNHGFLIYKFSQCSFSKPVFPYLNPRKCTVPMTLCSPSS [rhesus TRIM5α, 332-344 = GAPGTLYTFPSLV]”, the enrichment worked out at 2.26 ± 0.2.

Turning to “MASGILLNVKEEVTCPICLELLTEPLSLHCGHSFCQACITANHKKSMLYKEGERSCPVCRISYQPENIQPNRHVANIVEKLREVKLSPEEGQKVDHCARHGEKLLLFCQEDSKVICWLCERSQEHRGHHTFLMEEVAQEYHVKLQTALEMLRQKQQEAEKLEADIREEKASWKIQIDYDKTNVSADFEQLREILDWEESNELQNLEKEEEDILKSLTKSETEMVQQTQYMRELISELEHRLQGSMMDLLQGVDGIIKRIENMTLKKPKTFHKNQRRVFRAPDLKGMLDMFRELTDARRYWVDVTLAPNNISHAVIAEDKRQVSSRNPQIMYGAPGTLYTFPTFTNFNYCTGVLGSQSITSGKHYWEVDVSKKSAWILGVCAGFQSDAMYNIEQNENYQPKYGYWVIGLQEGVKYSVFQDGSSHTPFAPFIVPLSVIICPDRVGVFVDYEACTVSFFNITNHGFLIYKFSQCSFSKPVFPYLNPRKCTVPMTLCSPSS [rhesus TRIM5α, 332-344 = GAPGTLYTFPTFT]”, the enrichment worked out at 1.5 ± 0.82.

On to “MASGILLNVKEEVTCPICLELLTEPLSLHCGHSFCQACITANHKKSMLYKEGERSCPVCRISYQPENIQPNRHVANIVEKLREVKLSPEEGQKVDHCARHGEKLLLFCQEDSKVICWLCERSQEHRGHHTFLMEEVAQEYHVKLQTALEMLRQKQQEAEKLEADIREEKASWKIQIDYDKTNVSADFEQLREILDWEESNELQNLEKEEEDILKSLTKSETEMVQQTQYMRELISELEHRLQGSMMDLLQGVDGIIKRIENMTLKKPKTFHKNQRRVFRAPDLKGMLDMFRELTDARRYWVDVTLAPNNISHAVIAEDKRQVSSRNPQIMYGAPGTLYTFPTFVNFNYCTGVLGSQSITSGKHYWEVDVSKKSAWILGVCAGFQSDAMYNIEQNENYQPKYGYWVIGLQEGVKYSVFQDGSSHTPFAPFIVPLSVIICPDRVGVFVDYEACTVSFFNITNHGFLIYKFSQCSFSKPVFPYLNPRKCTVPMTLCSPSS [rhesus TRIM5α, 332-344 = GAPGTLYTFPTFV]”, for which the enrichment amounted to 0.712 ± 0.26.

As to “MASGILLNVKEEVTCPICLELLTEPLSLHCGHSFCQACITANHKKSMLYKEGERSCPVCRISYQPENIQPNRHVANIVEKLREVKLSPEEGQKVDHCARHGEKLLLFCQEDSKVICWLCERSQEHRGHHTFLMEEVAQEYHVKLQTALEMLRQKQQEAEKLEADIREEKASWKIQIDYDKTNVSADFEQLREILDWEESNELQNLEKEEEDILKSLTKSETEMVQQTQYMRELISELEHRLQGSMMDLLQGVDGIIKRIENMTLKKPKTFHKNQRRVFRAPDLKGMLDMFRELTDARRYWVDVTLAPNNISHAVIAEDKRQVSSRNPQIMYGAPGTLYTFPTLTNFNYCTGVLGSQSITSGKHYWEVDVSKKSAWILGVCAGFQSDAMYNIEQNENYQPKYGYWVIGLQEGVKYSVFQDGSSHTPFAPFIVPLSVIICPDRVGVFVDYEACTVSFFNITNHGFLIYKFSQCSFSKPVFPYLNPRKCTVPMTLCSPSS [rhesus TRIM5α, 332-344 = GAPGTLYTFPTLT]”, the enrichment was determined as 2.15 ± 0.81.

As for “MASGILLNVKEEVTCPICLELLTEPLSLHCGHSFCQACITANHKKSMLYKEGERSCPVCRISYQPENIQPNRHVANIVEKLREVKLSPEEGQKVDHCARHGEKLLLFCQEDSKVICWLCERSQEHRGHHTFLMEEVAQEYHVKLQTALEMLRQKQQEAEKLEADIREEKASWKIQIDYDKTNVSADFEQLREILDWEESNELQNLEKEEEDILKSLTKSETEMVQQTQYMRELISELEHRLQGSMMDLLQGVDGIIKRIENMTLKKPKTFHKNQRRVFRAPDLKGMLDMFRELTDARRYWVDVTLAPNNISHAVIAEDKRQVSSRNPQIMYGAPGTLYTFPTLVNFNYCTGVLGSQSITSGKHYWEVDVSKKSAWILGVCAGFQSDAMYNIEQNENYQPKYGYWVIGLQEGVKYSVFQDGSSHTPFAPFIVPLSVIICPDRVGVFVDYEACTVSFFNITNHGFLIYKFSQCSFSKPVFPYLNPRKCTVPMTLCSPSS [rhesus TRIM5α, 332-344 = GAPGTLYTFPTLV]”, the enrichment was determined as 1.47 ± 0.38.

With “MASGILLNVKEEVTCPICLELLTEPLSLHCGHSFCQACITANHKKSMLYKEGERSCPVCRISYQPENIQPNRHVANIVEKLREVKLSPEEGQKVDHCARHGEKLLLFCQEDSKVICWLCERSQEHRGHHTFLMEEVAQEYHVKLQTALEMLRQKQQEAEKLEADIREEKASWKIQIDYDKTNVSADFEQLREILDWEESNELQNLEKEEEDILKSLTKSETEMVQQTQYMRELISELEHRLQGSMMDLLQGVDGIIKRIENMTLKKPKTFHKNQRRVFRAPDLKGMLDMFRELTDARRYWVDVTLAPNNISHAVIAEDKRQVSSRNPQIMYGAPGTLYTFQSFTNFNYCTGVLGSQSITSGKHYWEVDVSKKSAWILGVCAGFQSDAMYNIEQNENYQPKYGYWVIGLQEGVKYSVFQDGSSHTPFAPFIVPLSVIICPDRVGVFVDYEACTVSFFNITNHGFLIYKFSQCSFSKPVFPYLNPRKCTVPMTLCSPSS [rhesus TRIM5α, 332-344 = GAPGTLYTFQSFT]”, the enrichment turned out to be 1.24 ± 0.1.

On to “MASGILLNVKEEVTCPICLELLTEPLSLHCGHSFCQACITANHKKSMLYKEGERSCPVCRISYQPENIQPNRHVANIVEKLREVKLSPEEGQKVDHCARHGEKLLLFCQEDSKVICWLCERSQEHRGHHTFLMEEVAQEYHVKLQTALEMLRQKQQEAEKLEADIREEKASWKIQIDYDKTNVSADFEQLREILDWEESNELQNLEKEEEDILKSLTKSETEMVQQTQYMRELISELEHRLQGSMMDLLQGVDGIIKRIENMTLKKPKTFHKNQRRVFRAPDLKGMLDMFRELTDARRYWVDVTLAPNNISHAVIAEDKRQVSSRNPQIMYGAPGTLYTFQSFVNFNYCTGVLGSQSITSGKHYWEVDVSKKSAWILGVCAGFQSDAMYNIEQNENYQPKYGYWVIGLQEGVKYSVFQDGSSHTPFAPFIVPLSVIICPDRVGVFVDYEACTVSFFNITNHGFLIYKFSQCSFSKPVFPYLNPRKCTVPMTLCSPSS [rhesus TRIM5α, 332-344 = GAPGTLYTFQSFV]”, for which the enrichment stood at 1.02 ± 0.21.

Regarding “MASGILLNVKEEVTCPICLELLTEPLSLHCGHSFCQACITANHKKSMLYKEGERSCPVCRISYQPENIQPNRHVANIVEKLREVKLSPEEGQKVDHCARHGEKLLLFCQEDSKVICWLCERSQEHRGHHTFLMEEVAQEYHVKLQTALEMLRQKQQEAEKLEADIREEKASWKIQIDYDKTNVSADFEQLREILDWEESNELQNLEKEEEDILKSLTKSETEMVQQTQYMRELISELEHRLQGSMMDLLQGVDGIIKRIENMTLKKPKTFHKNQRRVFRAPDLKGMLDMFRELTDARRYWVDVTLAPNNISHAVIAEDKRQVSSRNPQIMYGAPGTLYTFQSLTNFNYCTGVLGSQSITSGKHYWEVDVSKKSAWILGVCAGFQSDAMYNIEQNENYQPKYGYWVIGLQEGVKYSVFQDGSSHTPFAPFIVPLSVIICPDRVGVFVDYEACTVSFFNITNHGFLIYKFSQCSFSKPVFPYLNPRKCTVPMTLCSPSS [rhesus TRIM5α, 332-344 = GAPGTLYTFQSLT]”, the enrichment came to 0.829 ± 0.28.

For “MASGILLNVKEEVTCPICLELLTEPLSLHCGHSFCQACITANHKKSMLYKEGERSCPVCRISYQPENIQPNRHVANIVEKLREVKLSPEEGQKVDHCARHGEKLLLFCQEDSKVICWLCERSQEHRGHHTFLMEEVAQEYHVKLQTALEMLRQKQQEAEKLEADIREEKASWKIQIDYDKTNVSADFEQLREILDWEESNELQNLEKEEEDILKSLTKSETEMVQQTQYMRELISELEHRLQGSMMDLLQGVDGIIKRIENMTLKKPKTFHKNQRRVFRAPDLKGMLDMFRELTDARRYWVDVTLAPNNISHAVIAEDKRQVSSRNPQIMYGAPGTLYTFQSLVNFNYCTGVLGSQSITSGKHYWEVDVSKKSAWILGVCAGFQSDAMYNIEQNENYQPKYGYWVIGLQEGVKYSVFQDGSSHTPFAPFIVPLSVIICPDRVGVFVDYEACTVSFFNITNHGFLIYKFSQCSFSKPVFPYLNPRKCTVPMTLCSPSS [rhesus TRIM5α, 332-344 = GAPGTLYTFQSLV]”, the enrichment was determined as 1.14 ± 0.19.
